# Experimental data: publication PMC4336329 (PLoS ONE, 2015)
# The campaign covered roughly 310,000 compounds. About 2,200 (0.71%) showed an effect of 50% or more. The effect is printed as a negative number. This is one part of the list.
# Biological target: human ether-à-go-go-related gene (hERG) potassium channel (human, UniProt Q12809)
# Assay: primary screen, population patch clamp on CHO cells stably expressing hERG
# human ether-à-go-go-related gene (hERG) potassium channel, sequence (Q12809 whole entry, looked up): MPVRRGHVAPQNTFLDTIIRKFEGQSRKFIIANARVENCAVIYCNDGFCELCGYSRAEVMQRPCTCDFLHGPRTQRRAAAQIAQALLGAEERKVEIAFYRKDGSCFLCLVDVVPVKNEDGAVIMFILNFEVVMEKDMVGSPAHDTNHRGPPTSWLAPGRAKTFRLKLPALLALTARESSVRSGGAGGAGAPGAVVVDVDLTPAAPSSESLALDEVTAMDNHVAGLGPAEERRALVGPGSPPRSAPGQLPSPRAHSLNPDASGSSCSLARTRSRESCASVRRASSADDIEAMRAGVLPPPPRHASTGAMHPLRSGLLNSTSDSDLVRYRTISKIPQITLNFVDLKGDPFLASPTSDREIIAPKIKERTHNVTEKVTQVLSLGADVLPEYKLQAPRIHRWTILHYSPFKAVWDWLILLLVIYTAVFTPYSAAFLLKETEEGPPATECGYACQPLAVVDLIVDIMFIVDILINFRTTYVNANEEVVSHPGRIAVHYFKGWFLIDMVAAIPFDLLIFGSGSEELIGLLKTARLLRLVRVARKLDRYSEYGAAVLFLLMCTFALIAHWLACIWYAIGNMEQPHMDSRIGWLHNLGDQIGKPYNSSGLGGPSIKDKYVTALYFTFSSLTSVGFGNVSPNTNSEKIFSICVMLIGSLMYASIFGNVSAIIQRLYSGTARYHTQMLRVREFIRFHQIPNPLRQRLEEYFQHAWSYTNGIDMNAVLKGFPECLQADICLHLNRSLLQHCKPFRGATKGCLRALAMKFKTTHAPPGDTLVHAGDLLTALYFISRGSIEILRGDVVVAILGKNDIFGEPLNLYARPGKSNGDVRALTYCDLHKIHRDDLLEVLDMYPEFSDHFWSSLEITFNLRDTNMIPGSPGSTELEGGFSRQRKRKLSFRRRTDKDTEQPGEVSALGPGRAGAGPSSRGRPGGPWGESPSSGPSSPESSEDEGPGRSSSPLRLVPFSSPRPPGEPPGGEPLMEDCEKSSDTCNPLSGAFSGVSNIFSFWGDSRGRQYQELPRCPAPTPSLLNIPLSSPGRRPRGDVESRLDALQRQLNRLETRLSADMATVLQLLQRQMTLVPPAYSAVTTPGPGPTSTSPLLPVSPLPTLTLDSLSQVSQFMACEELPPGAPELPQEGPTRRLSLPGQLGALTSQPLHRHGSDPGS
row,Structure (SMILES),"hERG current change (%, negative = inhibition) at 1uM [%]"
1,CC1CCc2sc(C(=O)Nc3nnc(SCc4ccc(F)cc4)s3)cc2C1 (stereo not shown),12.4
2,CCC1Oc2ccc(C)cc2N(CC(=O)NCCC2=CCCCC2)C1=O (stereo not shown),-6.85
3,Cc1cc(N/N=C/c2cccc(Cl)c2)nc(-n2nc(C)cc2C)n1,13.8
4,Nc1nc2ccc(O)cc2s1,3.51
5,Clc1ccc(CSc2nccn2Cc2ccccc2)cc1,5.8
6,CC(C)Nc1nc(NC(C)C)nc(OCCOC(=O)Nc2ccccc2)n1,-3.81
7,N#Cc1c(-c2ccccc2)nc(-c2ccccc2)nc1N1CCOCC1,17.2
8,C[C@H]1C[C@@H]2[C@H]([C@@H](O)C[C@@]3(C)[C@H]2CC[C@]3(O)C(=O)CO)[C@@]2(C)C=CC(=O)C=C12,9.59
9,Cc1ccc(OCc2ccc(C(=O)Nc3ccc(S(N)(=O)=O)cc3)o2)cc1,9.81
10,Cl.FC(F)(F)Oc1ccc(C2NCc3ccccc3-n3cccc32)cc1 (stereo not shown),23.6
11,Cc1ccccc1OCc1nc(-c2ccccc2)no1,14.1
12,CCOc1ccc(NC(=O)CC(c2ccccc2)c2ccc(F)cc2)cc1 (stereo not shown),18.8
13,Cc1cc(C)c(S(=O)(=O)N2CCCCC2CCNC(=O)C(=O)NC2CC2)c(C)c1 (stereo not shown),8.37
14,Cc1cc(C)n2nc(SCc3cc(=O)oc4ccc5ccccc5c34)nc2n1,2.1
15,O=c1c(Cl)c(N2CCOCC2)cnn1-c1nc2ccccc2[nH]1,21.5
16,COc1ccc(C(=O)NC(=S)NCCc2ccccc2)cc1,-2.75
17,Cc1cccc(N=C2NC(=O)c3cc([N+](=O)[O-])ccc32)c1,-0.123
18,C=CCC1(CC=C)CCCN1C(=O)c1cc(COc2ccc(F)c(F)c2)on1,8.91
19,COc1ccc(NC(=O)NNC(=O)COc2ccc3cc(Br)ccc3c2)c(OC)c1,11
20,CNC(=O)c1ccsc1NC(=O)c1coc2ccccc2c1=O,11.9
21,Cc1cc(=O)oc2c(C(=O)c3ccccc3)c(OCC(N)=O)ccc12,9.62
22,Cc1ccc(CNCCCSc2nc(C)cc(C)n2)cc1.Cl,8.13
23,CN(C)c1ccc(NC(=O)CN2CCc3ccccc3C2)cc1,9.35
24,COc1ccc(C(C)C)cc1S(=O)(=O)Nc1ccc(Cl)cn1,5.75
25,Cc1ccc(S(=O)(=O)Oc2ccc(/C=C3/C(=N)N4C(=NC3=O)SN=C4S(C)(=O)=O)cc2)cc1,5.97
